# ± gives the standard deviation of the averaged measurements. The full ranking holds about 33,000 sequences; the median of “E-score (dimensionless, -0.5 to 0.5)” is about -0.049, and the highest 2% start at about 0.37. The list shows a part of the results.
# Tested on: T1, PmTbr T-box DNA-binding domain (GST fusion)
# T1 sequence: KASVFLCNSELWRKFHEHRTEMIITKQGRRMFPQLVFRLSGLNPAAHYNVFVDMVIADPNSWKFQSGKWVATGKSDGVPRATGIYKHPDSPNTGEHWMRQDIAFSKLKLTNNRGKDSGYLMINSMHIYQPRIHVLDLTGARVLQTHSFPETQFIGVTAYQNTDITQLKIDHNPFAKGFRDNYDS
# Assay: PBM E-score of 8-mer (E-score (dimensionless, -0.5 to 0.5)); Tbr is Tbrain of the sea star Patiria miniata (Pm) or the sea urchin Strongylocentrotus purpuratus (Sp); higher = stronger binding preference; most listed sequences are background and not binding sites
# Conditions: the construct has about 5 more residues each side
# Method: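 Universal protein-binding microarray (Agilent AMADID 016060, 60-bp probes with a 35-bp variable region) incubated with 200 nM GST-fused Patiria miniata Tbr T-box DNA-binding domain (residues 272-466) in PBS pH 7.5. Scored for every ungapped 8-mer (given with its reverse complement) by the Universal PBM Analysis Suite as E-score (modified Wilcoxon-Mann-Whitney enrichment, range -0.5 to 0.5; >0.45 counts as bound) and Z-score of median probe intensity. Two replicate arrays (datasets 1 and 2).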
# 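Further: 200 nM protein in PBS on universal arrays averaged over duplicate arrays.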
row,Sequence,PBM E-score of 8-mer
1,CTTAGATC,-0.0818 ± 0.021
2,CGAAATCG,0.231 ± 0.046
3,AAGGGTAA,-0.155 ± 0.0084
4,AAATCAGG,-0.229 ± 0.025
5,CCAGAGGA,-0.0404 ± 0.05
6,CCGAACGC,0.00566 ± 0.028
7,ACACGAGG,0.0826 ± 0.026
8,GATGGTCA,-0.26 ± 0.0048
9,TGCAAGAA,-0.0721 ± 0.033
10,CCTCCGAG,-0.0523 ± 0.035
11,GAATGGAA,-0.173 ± 0.041
12,GGATCGGA,-0.156 ± 0.065
13,CGTGTAGA,0.0938 ± 0.0091
14,CACGTCAC,0.286 ± 0.033
15,GGGATCCA,-0.0421 ± 0.0063
16,CGTACGGC,-0.206 ± 0.049
17,ATATAACG,0.046 ± 0.035
18,CAATATAA,0.0981 ± 0.026
19,TGCGAGCA,0.176 ± 0.073
20,CCCGAGAA,-0.0833 ± 0.01
21,ATACCCAG,-0.12 ± 0.057
22,ATTGAACA,-0.00966 ± 0.0099
23,AGGTGACG,0.4629 ± 0.0014
24,AAGAGTCG,-0.1406 ± 0.00026

row,Sequence,PBM E-score of 8-mer
1,ACGGCTAG,0.0288 ± 0.029
2,GGTGACTA,0.19 ± 0.03
3,CCTGATGC,-0.0675 ± 0.048
4,AACCCATT,-0.164 ± 0.021
5,ACTGTATG,0.0567 ± 0.041
6,CGGCCAGA,-0.215 ± 0.011
7,GGGTCCCA,-0.0792 ± 0.1
8,CCGGCACG,0.0606 ± 0.051
9,CGGCTAAG,-0.112 ± 0.019
10,AAAGCTAG,0.0329 ± 0.015
11,CTCGAGGC,-0.039 ± 0.098
12,CCCCGCAG,0.0651 ± 0.12
13,CCTCTATA,-0.0793 ± 0.0064
14,ACGAAAAA,0.0542 ± 0.081
15,CGCGCGTC,0.27 ± 0.0066
16,CGCAGCGA,0.0792 ± 0.034
17,ATATGAGG,0.00413 ± 0.077
18,ATTGTCGC,0.292 ± 0.024
19,GAAACGGA,-0.0173 ± 0.031
20,CGAAGCCC,-0.24 ± 0.015
21,GGCCACAA,-0.00403 ± 0.067
22,AAGCAGTG,-0.0981 ± 0.062
23,CGCAGGCC,-0.171 ± 0.036
24,GTGCACGA,0.0388 ± 0.068

row,Sequence,PBM E-score of 8-mer
1,CCTTCTCG,-0.0151 ± 0.074
2,GGAGTGAC,0.305 ± 0.014
3,CAGAGAGG,-0.215 ± 0.022
4,ATGATATG,0.00581 ± 0.036
5,GTCGAACA,0.0754 ± 0.019
6,ACTTTGAA,-0.0947 ± 0.082
7,CAGTAGTC,-0.308 ± 0.018
8,CACCGCTC,-0.0936 ± 0.025
9,ATAAGGGC,-0.242 ± 0.0041
10,ATCACCAC,0.15 ± 0.0054
11,ACTTAGCG,0.244 ± 0.017
12,AGGCAAAC,-0.0597 ± 0.05
13,CTGATATC,-0.122 ± 0.06
14,AATCTAAA,-0.0399 ± 0.05
15,AGATGAGA,-0.0493 ± 0.021
16,ACCCTGAT,-0.136 ± 0.025
17,ACAGAACT,-0.173 ± 0.056
18,AACGATGG,-0.0877 ± 0.044
19,AAGTCTAG,-0.131 ± 0.032
20,ACCATGAC,-0.101 ± 0.044
21,ATTTGACC,-0.282 ± 0.054
22,ACACAGTA,0.123 ± 0.057
23,AAGACAAC,0.00134 ± 0.031
24,GCAAGGAC,-0.0912 ± 0.024

row,Sequence,PBM E-score of 8-mer
1,GCACCTGA,0.391 ± 0.024
2,GCGGAAAA,-0.0264 ± 0.027
3,GACTGTTA,0.182 ± 0.077
4,TCTGCACA,0.0268 ± 0.042
5,AAGCAGGC,-0.00975 ± 0.047
6,CTGTTCCA,-0.0385 ± 0.054
7,TCGGCACA,0.166 ± 0.029
8,ACCCGGCT,-0.24 ± 0.0071
9,GACGGCCC,-0.0413 ± 0.0093
10,ATCATCCG,-0.16 ± 0.025
11,CCGAGTTA,-0.158 ± 0.044
12,ATGGGTGC,0.15 ± 0.017
13,CTTCGTGA,0.117 ± 0.044
14,AGGAGTCC,-0.319 ± 0.031
15,AAACACTC,0.181 ± 0.017
16,AGGATCTC,-0.135 ± 0.026
17,AGCACACA,0.0439 ± 0.003
18,CTGCACAA,-0.0665 ± 0.11
19,CAACCGAC,0.0468 ± 0.016
20,ACGCTCTG,-0.0658 ± 0.04
21,CCACCATA,-0.095 ± 0.013
22,ATTTGATG,-0.119 ± 0.0072
